# According to PubChem BioAssay AID624296 (National Center for Advancing Translational Sciences (NCATS), 2012):
# Among all 350,000 compounds or so, about 9,900 (2.8%) were called active. The shares of active, inactive and inconclusive entries below differ from those in the screen. Calls follow the shape of the dose curve; as a rule, active = well fitted activation curve with a large enough effect; inconclusive = small, poorly fitted or top-dose-only effect; inactive = no such curve, though single readings can be large or run the other way. No potency is given beside an inconclusive call; the fits are too rough.
# Test: A quantitative high throughput screen for small molecules that induce DNA re-replication in MCF 10a normal breast cells. Also: nearly all actives have a fitted effect of over 50% in size.
# Conditions: MCF 10A DNA re-replication, Hoechst nuclear intensity, 48 h; series mostly up to 46.1 µM
# Potency is read from the fitted curve at half-maximal effect; tags tell the direction and shape of the fitted curve.
row,Structure (SMILES),Potency
1,COc1cc(C)ccc1NC(=O)Cc1csc(NC(=O)Nc2ccccc2OC)n1,"inconclusive [activator, partial curve, poor fit]"
2,CCOc1c(Br)cc(CNCc2cccs2)cc1OC,inactive
3,CCOC(=O)c1ccc(NC(=O)CC2C(=O)OCCN2CC)cc1 (centres undefined),"inconclusive [activator, full curve, poor fit]"
4,COc1ccc(OC)c(S(=O)(=O)n2cnc3cc(C)c(C)cc32)c1,"inconclusive [activator, partial curve, poor fit]"
5,CCS(=O)(=O)N1Cc2ccccc2CC1C(=O)Nc1nc2ccc(F)cc2s1 (centres undefined),"inconclusive [activator, partial curve, poor fit]"
6,O=C(CC12CC3CC(CC(C3)C1)C2)NC(=S)NCc1ccco1,inactive
7,CCOC(=O)c1ccc(Nc2nc(N3CCOCC3)nc(N3CCOCC3)n2)cc1,"inconclusive [activator, partial curve]"
8,C=C(C)C(=O)OCC(O)COc1ccc(C(C)(C)c2ccc(OCC(O)COC(=O)C(=C)C)cc2)cc1 (centres undefined),inactive
9,CC(CC(=O)Nc1ncc([N+](=O)[O-])s1)c1ccccc1 (centres undefined),inactive
10,COc1ccc(NC(=S)NNC(=S)Nc2cccc(C(F)(F)F)c2)cc1,active: 14.6 µM
11,Cc1cc(C)n(CCc2nc(-c3ccc(-c4ccccc4)cc3)cs2)n1,"inconclusive [activator, full curve, poor fit]"
12,COC(=O)c1cccc(NC(=O)Cc2ccccc2[N+](=O)[O-])c1C,inactive
13,O=C(NNS(=O)(=O)c1ccc(Br)cc1)c1csnn1,"inconclusive [activator, partial curve, poor fit]"
14,Cc1cccc2cc(CN(Cc3ccco3)S(=O)(=O)c3ccc4c(c3)OCCO4)c(=O)[nH]c12,inactive
15,COc1ccc(CCNc2nc(-c3sc(C)nc3C)cs2)cc1OC,"inconclusive [activator, single point]"
16,COc1ccc(C(=O)Nc2ccc3ccccc3n2)c(OC)c1OC,inactive
17,COc1ccccc1-c1nc(S(=O)(=O)c2ccc(Cl)cc2)c(N(C)C)o1,"inconclusive [activator, partial curve, poor fit]"
18,O=C(c1ccccn1)N1CCN(S(=O)(=O)c2ccccc2)CC1,"inconclusive [activator, partial curve, poor fit]"
19,CSc1nsc(SCC(=O)Nc2ccccc2C(N)=O)n1,"inconclusive [activator, partial curve, poor fit]"
